Experiment [1] deals with T1, Recombinant human ALK1-Fc (ALK1 extracellular domain-IgG Fc fusion protein) (human, UniProt P37023 fragment).
T1 construct: extracellular domain; Bought reagent (R&D #370AL is named for the luciferase assay); also called immobilized ALK1; ACVRL1; not shown: IgG Fc of the bought fusion protein (captured on anti-human IgG Fc sensors)
Description: BLI (Octet Red), FIG. 2A. Here is the method: (§1) To characterize the biochemical interactions of the scFv clones with recombinant human ALK1 and BMPR2 receptors, we used Bio-Layer Interferometry (Octet Red 384, ForteBio). Receptors, expressed as IgG Fc fusion proteins (i.e., ALK1-Fc, and BMPR2-Fc) were immobilized onto Anti-Human IgG Fc Capture Sensors (ForteBio, #18-0015) at a concentration of 10 µg/mL in an equilibration buffer of HEPES 20 mM (GIBCO #15630), 0.05% Tween-20 (Promega #H5151), and Imidazole 25 mM (SIGMA #10250) in PBS. All the clones were tested at different ranges of concentration in equilibration buffer: 50 nM, 100 nM, 200 nM, and 400 nM. The ForteBio program methodology was set as follows: Baseline equilibration of 60 s, loading time of 60 s, washing time of 120 s, association time of 300 s, and dissociation time of 600 s. The binding kinetics were analyzed using the ForteBio data analysis software.
(§2) Bio-Layer Interferometry was used to determine the affinities of scFv clones for human BMPR2 and ALK1 receptors. The binding kinetics of scFv clones ALK1.3 (FIG. 1A) and ALK1.8 (FIG. 1B) versus immobilized ALK1; and BMPR2.12 (FIG. 1C) and BMPR2.23 (FIG. 1D) against BMPR2 are shown.

In experiment [2] the target is T2, Recombinant human BMPR2-Fc (BMPR2 extracellular domain-IgG Fc fusion protein) (human, UniProt Q13873 27-150).
T2 construct: extracellular domain; also called immobilized BMPR2; BMPRII; not shown: IgG Fc of the fusion protein (captured on anti-human IgG Fc sensors)
T2 sequence (looked up): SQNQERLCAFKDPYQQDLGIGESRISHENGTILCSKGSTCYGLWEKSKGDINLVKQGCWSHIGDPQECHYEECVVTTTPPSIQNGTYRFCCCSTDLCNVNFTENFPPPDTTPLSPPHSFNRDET
Kind of experiment: BLI (Octet Red), immobilized BMPR2, FIG. 2B. Here is the method:
as §1, §2

For experiment [3], the target named is T1, Recombinant human ALK1-Fc (ALK1 …). Description: BLI, FIG. 4D. As for the experimental part:
as §1

T1 sequence (P37023 22-118): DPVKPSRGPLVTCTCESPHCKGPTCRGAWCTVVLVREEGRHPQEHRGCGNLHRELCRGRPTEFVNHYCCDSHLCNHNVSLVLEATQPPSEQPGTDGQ

B1: scFv clone ALK1.8 (anti-ACVRL1/ALK1) (scFv)
scFv: [about 100 residues not written out]EGKSSGSGSESKASQVQLQESGPGLVKPSQTLSLTCTVSGGSISSDDYYWSWIRQTPGKGLEWIGYIYYSGITYYNPSLKSRVTISVDTSKNQFSLKLSSVTAADTAVYYCAREGCNDGVCYNGVFDYWGQGTLVTVSS
notes: Human scFv from phage display, VL-linker-VH, expressed in E. coli; also called ACVRL1.8
With B1, the binding result in experiment [1] was “binds”; in experiment [2], “no binding”.

B2: Biotinylated scFv ALK1.8 (scFv)
scFv: [about 100 residues not written out]EGKSSGSGSESKASQVQLQESGPGLVKPSQTLSLTCTVSGGSISSDDYYWSWIRQTPGKGLEWIGYIYYSGITYYNPSLKSRVTISVDTSKNQFSLKLSSVTAADTAVYYCAREGCNDGVCYNGVFDYWGQGTLVTVSS
modifications: biotinylated (DSB-X Biotin Protein Labeling Kit; average 1.5-2 sites per molecule; sites not stated)
notes: ALK1.8 scFv after low substitution ratio biotinylation; also called ALK1.8-Bio
Regarding B2, the binding result in experiment [3] is reported as “binds”.

(Values after US20230220085A1 (BRIGHAM AND WOMEN S HOSPITAL, published 2023).)
